Results: the supplement of paper PMC12217912
This is one part of the list. The full chains were built here from the parent and the listed change. Values near 0.05 are background.

B1: TEV protease; numbered along this chain (parent)
chain: MGESLFKGPRDYNPISSSICHLTNESDGHTTSLYGIGFGPFIITNKHLFRRNNGTLVVQSLHGVFKVKDTTTLQQHLVDGRDMIIIRMPKDFPPFPQKLKFREPQREERICLVTTNFQTKSMSSMVSDTSCTFPSGDGIFWKHWIQTKDGQCGSPLVSTRDGFIVGIHSASNFTNTNNYFTSVPKNFMELLTNQEAQQWVSGWRLNADSVLWGGHKVFMVKPEEPFQPVKEATQL

Variants of: B1
Test: raw area under fraction-flipped curve 0-4 h after induction (AUC4h, not background-subtracted), DNA-recorder readout of cleavage of the substrate (dimensionless); higher = more cleavage of the substrate by the protease variant
Settings: temperature: 34 °C; time window: 0-4 h after rhamnose induction
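Further: Bxb1 expression induced with 0.2% (w/v) L-rhamnose at OD600 near 0.5, cultures sampled hourly, flipped fraction per protease–substrate barcode pair counted by paired-end Illumina sequencing.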

Variant	area with substrate ENLCFQS	area with substrate ENLDFQS	area with substrate ENLEFQS	area with substrate ENLFFQS	area with substrate ENLGFQS	area with substrate ENLHFQS	area with substrate ENLIFQS	area with substrate ENLKFQS	area with substrate ENLLFQS	area with substrate ENLNFQS	area with substrate ENLPFQS	area with substrate ENLRFQS	area with substrate ENLSFQS	area with substrate ENLVFQS	area with substrate ENLWFQS	area with substrate ENLMFQS	area with substrate ENLQFQS	area with substrate ENLTFQS
MGESLFKGPRDYNPISSSICHLTNESDGHTTSLYGIGFGPFIITNKHLFRRNNGTLVVQSLHGVFKVKDTTTLQQHLVDGRDMIIIRMPKDFPPFPQKLKFREPQREERICLVTTNFQTKSMSSMVSDTSCTFPSGDGIFWKHWIQTKDGQCGSPLVSTRDGFIVGIHSASNFTNTNNYFTSVPKNFMELLTNQEAQQWVSGWRLNADSVLWGGHKVFMVKPEEPCQPVKEATQL [F226C]	0.07	0.0705	0.0632	0.0904	0.0583	0.0946	0.0942	0.0835	0.0766	0.059	0.0544	0.0476	0.0601	0.0727	0.0496			
MGESLFKGPRDYNPISSSICHLTNESDGHTTSLYGIGFGPFIITNKHLFRRNNGTLVVQSLHGVFKVKDTTTLQQHLVDGRDMIIIRMPKDFPPFPQKLKFREPQREERICLVTTNFQTKSMSSMVSDTSCTFPSGDGIFWKHWIQTKDGQCGSPLVSTRDGFIVGIHSASNFTNTNNYFTSVPKNFMELLTNQEAQQWVSGWRLNADSVLWGGHKVFMVKPEEPFQPVKEHTQL [A232H]	0.0787		0.0619	0.0823		0.0905												
MGESLFKGPRDYNPISSSICHLTNESDGHTTSLYGIGFGPFIITNKHLFRRNNGTLVVQSLHGVFKVKDTTTLQQHLVDGRDMIIIRMPKDFPPFPQKLKFREPQREERICLVTTNFQTKSMSSMVSDTSCTFPSGDGIFWKHWIQTKDGQCGSPLVSTRDGFIVGIHSASNFTNTNNYFTSVPKNFMELLTNQEAQQWVSGWRLNADSVLWGGHKVFMVKPEEPFQPVKESTQL [A232S]	0.0882			0.0901		0.081	0.0815	0.0797		0.0586	0.0775	0.0645	0.052		0.0736	0.0978	0.111	
MGESLFKGPRDYNPISSSICHLTNESDGHTTSLYGIGFGPFIITNKHLFRRNNGTLVVQSLHGVFKVKDTTTLQQHLVDGRDMIIIRMPKDFPPFPQKLKFREPQREERICLVTTNFQTKSMSSMVSDTSCTFPSGDGIFWKHWIQTKDGQCGSPLVSTRDGFIVGIHSASNFTNTNNYFTSVPKNFMELLTNQEAQQWVSGWRLNADSVLWGGHKVFMVKPEEPFQPVKEMTQL [A232M]	0.0836			0.0542		0.0615		0.105		0.0904	0.0513	0.094	0.0636		0.0626			
MGESLFKGPRDYNPISSSICHLTNESDGHTTSLYGIGFGPFIITNKHLFRRNNGTLVVQSLHGVFKVKDTTTLQQHLVDGRDMIIIRMPKDFPPFPQKLKFREPQREERICLVTTNFQTKSMSSMVSDTSCTFPSGDGIFWKHWIQTKDGQCGSPLVSTRDGFIVGIHSASNFTNTNNYFTSVPKNFMELLTNQEAQQWVSGWRLNADSVLWGGHKVFMVKPEEPFQPVKETTQL [A232T]	0.0561					0.058	0.0767	0.0844		0.0592		0.0601	0.0564		0.07	0.0845		
MGESLFKGPRDYNPISSSICHLTNESDGHTTSLYGIGFGPFIITNKHLFRRNNGTLVVQSLHGVFKVKDTTTLQQHLVDGRDMIIIRMPKDFPPFPQKLKFREPQREERICLVTTNFQTKSMSSMVSDTSCTFPSGDGIFWKHWIQTKDGQCGSPLVSTRDGFIVGIHSASNFTNTNNYFTSVPKNFMELLTNQEAQQWVSGWRLNADSVLWGGHKVFMVKPEEPFQPVKECTQL [A232C]	0.0684	0.0631		0.0891				0.0851		0.084		0.067		0.0938	0.0693			
MGESLFKGPRDYNPISSSICHLTNESDGHTTSLYGIGFGPFIITNKHLFRRNNGTLVVQSLHGVFKVKDTTTLQQHLVDGRDMIIIRMPKDFPPFPQKLKFREPQREERICLVTTNFQTKSMSSMVSDTSCTFPSGDGIFWKHWIQTKDGQCGSPLVSTRDGFIVGIHSASNFTNTNNYFTSVPKNFMELLGNQEAQQWVSGWRLNADSVLWGGHKVFMVKPEEPFQPVKEATQL [T192G]	0.0696		0.0888	0.0779		0.0596		0.08	0.0722	0.075				0.0625		0.0734		0.0697
MGESLFKGPRDYNPISSSICHLTNESDGHTTSLYGIGFGPFIITNKHLFRRNNGTLVVQSLHGVFKVKDTTTLQQHLVDGRDMIIIRMPKDFPPFPQKLKFREPQREERICLVTTNFQTKSMSSMVSDTSCTFPSGDGIFWKHWIQTKDGQCGSPLVSTRDGFIVGIHSASNFTNTNNYFTSVPKNFMELLHNQEAQQWVSGWRLNADSVLWGGHKVFMVKPEEPFQPVKEATQL [T192H]	0.0684	0.0651		0.0998	0.0954	0.074	0.0801	0.0742		0.0668	0.0753	0.0701	0.0617		0.0751			
MGESLFKGPRDYNPISSSICHLTNESDGHTTSLYGIGFGPFIITNKHLFRRNNGTLVVQSLHGVFKVKDTTTLQQHLVDGRDMIIIRMPKDFPPFPQKLKFREPQREERICLVTTNFQTKSMSSMVSDTSCTFPSGDGIFWKHWIQTKDGQCGSPLVSTRDGFIVGIHSASNFTNTNNYFTSVPKNFMELLTNQEAQQWVSGWRLNAKSVLWGGHKVFMVKPEEPFQPVKEATQL [D208K]	0.0846					0.0749				0.0565			0.0498					
MGESLFKGPRDYNPISSSICHLTNESDGHTTSLYGIGFGPFIITNKHLFRRNNGTLVVQSLHGVFKVKDTTTLQQHLVDGRDMIIIRMPKDFPPFPQKLKFREPQREERICLVTTNFQTKSMSSMVSDTSCTFPSGDGIFWKHWIQTKDGQCGSPLVSTRDGFIVGIHSASNFTNDNNYFTSVPKNFMELLTNQEAQQWVSGWRLNADSVLWGGHKVFMVKPEEPFQPVKEATQL [T176D]	0.0681	0.0777				0.0536		0.061		0.0733		0.0567	0.0598	0.0848			0.0693	
